# Assay results reported in the supplement of paper PMC12067093, “Discovery and optimisation of a covalent ligand for TRIM25 and its application to targeted protein ubiquitination” (Chemical Science, 2025).
# Of roughly 21,000 targets only a part is listed; those with the largest changes were picked by preference.
# Compound: CC1Cc2ccccc2N1C(=O)C1CCCN(C1)C(=O)CCl (mixture of isomers) [TRIM25 ligand 11 (diastereomer mixture)]
# Test: probe-labelled cysteine peptide fold change vs DMSO (competition) (log2 fold change); higher = less target engagement (more negative = stronger competition)
# Details: 50 µM; THP-1; incubation time: 4 h
# 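Also: competitive chemoproteomic profiling in live THP-1 cells with an iodoacetamide desthiobiotin (IA-DTB) probe, comparing probe-labelled peptide intensities in compound-treated cells against DMSO-treated controls.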
# UniProt P51826, sequence (P51826 whole entry, looked up): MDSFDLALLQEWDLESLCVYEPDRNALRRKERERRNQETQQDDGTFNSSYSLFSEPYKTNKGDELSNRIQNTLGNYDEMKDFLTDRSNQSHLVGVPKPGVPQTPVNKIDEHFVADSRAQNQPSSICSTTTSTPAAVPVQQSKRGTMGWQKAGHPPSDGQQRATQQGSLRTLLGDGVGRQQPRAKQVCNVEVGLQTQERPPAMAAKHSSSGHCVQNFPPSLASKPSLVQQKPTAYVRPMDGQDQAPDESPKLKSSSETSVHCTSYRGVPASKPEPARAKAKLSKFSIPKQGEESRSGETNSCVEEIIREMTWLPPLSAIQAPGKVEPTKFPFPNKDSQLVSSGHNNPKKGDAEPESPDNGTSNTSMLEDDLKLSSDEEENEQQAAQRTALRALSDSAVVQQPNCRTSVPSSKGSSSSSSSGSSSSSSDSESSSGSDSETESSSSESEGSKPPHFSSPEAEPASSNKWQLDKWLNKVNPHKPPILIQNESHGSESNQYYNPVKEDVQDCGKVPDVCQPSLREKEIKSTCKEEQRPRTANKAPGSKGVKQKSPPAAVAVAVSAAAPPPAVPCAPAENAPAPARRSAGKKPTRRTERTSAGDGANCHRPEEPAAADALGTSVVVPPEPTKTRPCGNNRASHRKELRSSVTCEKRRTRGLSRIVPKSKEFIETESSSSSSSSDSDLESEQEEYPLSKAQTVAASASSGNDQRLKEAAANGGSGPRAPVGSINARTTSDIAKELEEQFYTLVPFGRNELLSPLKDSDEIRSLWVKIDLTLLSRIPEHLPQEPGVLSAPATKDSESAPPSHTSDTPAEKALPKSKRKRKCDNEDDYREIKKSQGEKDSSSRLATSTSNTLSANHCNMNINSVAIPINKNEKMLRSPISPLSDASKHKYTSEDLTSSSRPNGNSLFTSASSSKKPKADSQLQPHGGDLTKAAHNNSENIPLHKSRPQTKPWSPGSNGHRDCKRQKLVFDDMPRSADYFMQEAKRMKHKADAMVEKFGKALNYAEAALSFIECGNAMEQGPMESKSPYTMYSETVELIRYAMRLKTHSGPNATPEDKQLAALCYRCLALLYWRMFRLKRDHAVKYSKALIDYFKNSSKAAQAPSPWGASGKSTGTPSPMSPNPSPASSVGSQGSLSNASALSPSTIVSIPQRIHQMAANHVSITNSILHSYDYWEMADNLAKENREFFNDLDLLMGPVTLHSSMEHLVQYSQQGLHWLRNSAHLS
# UniProt Q9UKV3, sequence (Q9UKV3 whole entry, looked up): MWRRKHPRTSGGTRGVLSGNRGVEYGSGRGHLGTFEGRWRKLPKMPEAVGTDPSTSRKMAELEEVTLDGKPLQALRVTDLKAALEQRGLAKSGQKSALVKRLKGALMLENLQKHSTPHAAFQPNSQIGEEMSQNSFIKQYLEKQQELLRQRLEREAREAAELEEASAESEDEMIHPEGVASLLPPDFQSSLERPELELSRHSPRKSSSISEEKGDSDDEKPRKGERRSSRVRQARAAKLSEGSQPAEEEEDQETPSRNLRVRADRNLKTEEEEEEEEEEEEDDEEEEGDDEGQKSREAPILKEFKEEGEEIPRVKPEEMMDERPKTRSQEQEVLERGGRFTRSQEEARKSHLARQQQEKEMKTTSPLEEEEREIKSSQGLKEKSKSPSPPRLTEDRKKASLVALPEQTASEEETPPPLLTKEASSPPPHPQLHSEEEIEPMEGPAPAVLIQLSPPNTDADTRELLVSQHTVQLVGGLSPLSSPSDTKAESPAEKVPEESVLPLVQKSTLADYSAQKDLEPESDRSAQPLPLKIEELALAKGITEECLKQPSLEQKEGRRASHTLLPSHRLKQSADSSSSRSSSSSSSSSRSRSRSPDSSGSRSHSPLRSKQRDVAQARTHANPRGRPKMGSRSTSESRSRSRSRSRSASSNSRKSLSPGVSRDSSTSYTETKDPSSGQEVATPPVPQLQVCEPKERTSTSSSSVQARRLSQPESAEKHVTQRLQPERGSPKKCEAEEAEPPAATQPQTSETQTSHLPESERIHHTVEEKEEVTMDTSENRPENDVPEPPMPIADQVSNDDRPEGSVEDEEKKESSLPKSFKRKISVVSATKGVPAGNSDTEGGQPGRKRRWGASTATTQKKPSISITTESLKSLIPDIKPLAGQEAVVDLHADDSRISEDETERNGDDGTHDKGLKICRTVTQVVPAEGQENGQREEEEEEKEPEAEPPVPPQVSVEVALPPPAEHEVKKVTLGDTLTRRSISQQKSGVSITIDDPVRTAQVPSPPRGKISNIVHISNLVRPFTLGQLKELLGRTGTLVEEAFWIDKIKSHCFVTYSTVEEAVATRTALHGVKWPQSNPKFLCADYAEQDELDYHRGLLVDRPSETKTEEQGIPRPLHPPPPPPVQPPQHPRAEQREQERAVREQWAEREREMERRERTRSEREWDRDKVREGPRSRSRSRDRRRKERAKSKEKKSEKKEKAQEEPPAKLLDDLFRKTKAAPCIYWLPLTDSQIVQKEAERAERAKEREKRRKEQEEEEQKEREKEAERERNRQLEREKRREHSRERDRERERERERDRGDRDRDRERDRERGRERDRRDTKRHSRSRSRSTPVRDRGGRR
# UniProt P55265, sequence (P55265 whole entry, looked up): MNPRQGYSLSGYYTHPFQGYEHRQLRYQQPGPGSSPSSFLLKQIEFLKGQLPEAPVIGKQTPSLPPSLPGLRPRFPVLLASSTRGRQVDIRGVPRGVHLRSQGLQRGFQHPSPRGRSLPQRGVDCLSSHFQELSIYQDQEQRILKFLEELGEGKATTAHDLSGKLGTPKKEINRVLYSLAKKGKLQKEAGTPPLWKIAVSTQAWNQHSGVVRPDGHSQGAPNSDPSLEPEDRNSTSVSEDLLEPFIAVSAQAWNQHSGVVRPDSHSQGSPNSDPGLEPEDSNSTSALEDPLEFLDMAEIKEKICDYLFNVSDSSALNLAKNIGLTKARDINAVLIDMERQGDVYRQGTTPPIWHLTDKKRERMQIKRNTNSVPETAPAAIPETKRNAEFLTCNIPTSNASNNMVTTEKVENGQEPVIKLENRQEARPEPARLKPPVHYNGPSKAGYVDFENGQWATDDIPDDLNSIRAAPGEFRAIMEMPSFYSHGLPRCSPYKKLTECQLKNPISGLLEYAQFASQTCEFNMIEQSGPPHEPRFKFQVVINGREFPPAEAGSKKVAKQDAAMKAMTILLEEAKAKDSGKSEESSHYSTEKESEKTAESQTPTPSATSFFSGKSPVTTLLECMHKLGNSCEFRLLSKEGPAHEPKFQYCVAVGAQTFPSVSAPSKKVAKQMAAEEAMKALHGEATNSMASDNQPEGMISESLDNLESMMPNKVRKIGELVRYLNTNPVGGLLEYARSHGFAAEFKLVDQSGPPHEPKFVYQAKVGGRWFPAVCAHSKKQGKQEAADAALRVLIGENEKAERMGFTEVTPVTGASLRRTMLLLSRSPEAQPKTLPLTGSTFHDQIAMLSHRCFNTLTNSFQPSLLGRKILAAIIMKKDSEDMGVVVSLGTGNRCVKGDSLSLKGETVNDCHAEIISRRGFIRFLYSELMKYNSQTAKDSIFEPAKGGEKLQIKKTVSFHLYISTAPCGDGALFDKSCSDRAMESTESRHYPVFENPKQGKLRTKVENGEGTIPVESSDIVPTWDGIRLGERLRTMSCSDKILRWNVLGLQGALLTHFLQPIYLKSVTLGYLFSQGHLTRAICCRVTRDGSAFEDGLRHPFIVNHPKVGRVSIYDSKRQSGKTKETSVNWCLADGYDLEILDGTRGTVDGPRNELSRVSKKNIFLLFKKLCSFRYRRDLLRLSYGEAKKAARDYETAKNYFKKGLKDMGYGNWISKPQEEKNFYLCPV
# UniProt Q9NUQ8, sequence (Q9NUQ8 whole entry, looked up): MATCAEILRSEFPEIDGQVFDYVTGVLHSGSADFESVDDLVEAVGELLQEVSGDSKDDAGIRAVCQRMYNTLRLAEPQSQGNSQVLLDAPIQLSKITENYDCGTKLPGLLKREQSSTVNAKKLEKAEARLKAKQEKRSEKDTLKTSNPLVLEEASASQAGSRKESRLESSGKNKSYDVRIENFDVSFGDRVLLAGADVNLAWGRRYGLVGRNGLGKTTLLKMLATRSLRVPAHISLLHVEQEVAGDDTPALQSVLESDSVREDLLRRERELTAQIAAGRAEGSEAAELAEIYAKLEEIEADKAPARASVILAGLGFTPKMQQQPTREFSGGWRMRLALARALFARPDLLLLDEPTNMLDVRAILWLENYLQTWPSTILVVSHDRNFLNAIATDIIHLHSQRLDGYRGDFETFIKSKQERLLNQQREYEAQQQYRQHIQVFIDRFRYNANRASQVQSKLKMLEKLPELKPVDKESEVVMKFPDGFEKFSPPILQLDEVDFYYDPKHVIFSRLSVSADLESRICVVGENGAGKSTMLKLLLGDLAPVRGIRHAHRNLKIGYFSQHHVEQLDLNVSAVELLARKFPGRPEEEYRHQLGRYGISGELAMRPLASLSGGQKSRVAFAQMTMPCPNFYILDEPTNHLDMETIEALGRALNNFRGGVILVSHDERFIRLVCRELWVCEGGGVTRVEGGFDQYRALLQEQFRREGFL
# UniProt Q9H9F9, sequence (Q9H9F9 whole entry, looked up): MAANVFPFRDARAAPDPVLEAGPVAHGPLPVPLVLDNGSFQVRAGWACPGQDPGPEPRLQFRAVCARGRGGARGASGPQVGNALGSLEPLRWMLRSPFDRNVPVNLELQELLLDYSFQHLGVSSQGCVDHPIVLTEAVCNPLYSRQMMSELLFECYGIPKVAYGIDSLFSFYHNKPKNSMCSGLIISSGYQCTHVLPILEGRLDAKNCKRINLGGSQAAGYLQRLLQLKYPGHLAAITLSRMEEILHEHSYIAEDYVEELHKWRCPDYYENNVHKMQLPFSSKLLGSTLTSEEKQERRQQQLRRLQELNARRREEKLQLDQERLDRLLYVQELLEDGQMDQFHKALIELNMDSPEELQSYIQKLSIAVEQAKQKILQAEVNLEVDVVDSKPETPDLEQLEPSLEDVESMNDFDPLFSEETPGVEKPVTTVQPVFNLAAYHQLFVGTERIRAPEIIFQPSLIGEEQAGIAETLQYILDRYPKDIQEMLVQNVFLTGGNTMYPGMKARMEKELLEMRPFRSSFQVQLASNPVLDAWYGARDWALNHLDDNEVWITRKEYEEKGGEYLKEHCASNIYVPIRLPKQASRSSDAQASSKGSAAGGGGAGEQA
row,Target,probe-labelled cysteine peptide fold change
1,ACSL1_P33121_241_CGVEVTSMK (UniProt P33121),-0.071
2,AFF3_P51826_301_SGETNSCVEEIIR (UniProt P51826),-0.388
3,ADAR_P55265_622_SPVTTLLECMHK (UniProt P55265),-0.0592
4,ABCF3_Q9NUQ8_102_ITENYDCGTK (UniProt Q9NUQ8),-0.0207
5,ACAA1_P09110_123_QCSSGLQAVASIAGGIR (UniProt P09110),-0.0511
6,ABCF1_Q8NE71_741_FGLESHAHTIQICK (UniProt Q8NE71),0.111
7,ACAA1_P09110_148_NGSYDIGMACGVESMSLADR (UniProt P09110),-0.4
8,ADGRL3_Q9HAR2_36_ELSCESYPIELR (UniProt Q9HAR2),0.0561
9,ACIN1_Q9UKV3_1083_FLCADYAEQDELDYHR (UniProt Q9UKV3),-0.129
10,ACP1_P24666_91_QITKEDFATFDYILCMDESNLR (UniProt P24666),-0.533
11,ABHD15_Q6UXT9_199_GHHGCPLVSPR (UniProt Q6UXT9),-0.0346
12,ADAM10_O14672_530_DDSDCAR (UniProt O14672),0.929
13,ACTR5_Q9H9F9_265_CPDYYENNVHK (UniProt Q9H9F9),-0.249
14,ACSL1_P33121_297_NIVSDCSAFVK (UniProt P33121),0.117
